{"source": "patent US20220280543A1", "about": "(UNIVERSITY OF VIRGINIA PATENT FOUNDATION, published 2022)", "proteins": {"B1": {"name": "mouse NLR family CARD domain containing 4 (Nlrc4) (receptor)", "chain": "not shown", "notes": "Endogenous protein of mouse BMDM / iBMDM"}}, "molecular_target": "the molecule itself", "experiment": "homo-oligomerization, Tris-glycine native PAGE immunoblot, Alu RNA-treated mouse BMDM", "experimental": "FIG. 4. Alu RNA (SEQ ID NO: 86) induced NLRC4 protein oligomerization. Mouse BMDM was treated with Alu RNA (SEQ ID NO: 86; 100 pmol) at the indicated time points. NLRC4 oligomers were detected by Tris-glycine native PAGE. Loading control show by Actin. […] The bands of oligomeric NLRC4 protein were indicated by black arrow.\nThe activated NLRC4 inflammasome undergoes oligomerization by assembling into high-molecular mass multiprotein complexes. We first investigated in situ assembling of NLRC4 and apoptosis speck (ASC) like protein complexes in response to SINE RNA treatment of BMDMs. Immunofluorescence studies show increased NLRC4 and ASC specks in SINE RNA-treated BMDMs compared to mock-treated cells (FIG. 3A). To assess NLRC4 inflammasome assembly, WT and NLRC4 KO BMDM cells were treated with Alu RNA (SEQ ID NO: 86). Disuccinimidyl suberate (DSS) cross-linked lysates were resolved using denaturing SDS-PAGE to detect ASC oligomers and cell lysates were resolved using native polyacrylamide gel electrophoresis (NATIVE-PAGE) to detect NLRC4 oligomerization. […] NLRC4/ASC oligomerization is essential for the cleavage of pro-caspase-1 into its active form p20 and IL-1β release."}
{"protein": "B1", "values": [{"measurement": "binding result", "value": "binds"}]}
